# Source: PubChem BioAssay (EPA / NIEHS)
# For some of these results: This list holds what a sample rich in hits left over. Inconclusive results are not listed. This is a selection; strong and weak results do not stand in their true shares. Some structures have more than one record in an assay (separate samples or runs), and their calls can disagree. Calls of active or inactive are those of the source. Rule for the calls, unless noted: active = hit-call score of the fitted dose curve at least 0.9, where 1 is the maximum; inactive = score below 0.9.
# Assays:
# [1] = read-out: serum amyloid A (SAA), SAA1 (gene 6288); assay: BSK_CASM3C_SAA: BioMAP Diversity Plus: CASM3C Assay for serum amyloid A (SAA) Biomarker Activity (AID 2283049); conditions: actives raise or lower the signal; primary human coronary artery smooth muscle cells;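 note: SAA protein level quantified by ELISA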
# [2] = read-out: Macrophage colony-stimulating factor (MCSF), CSF1 (gene 1435); assay: BSK_hDFCGF_MCSF: BioMAP Diversity Plus: hDFCGF Assay for Macrophage colony-stimulating factor (MCSF) Biomarker Activity (AID 2283060); conditions: actives raise or lower the signal; primary human foreskin fibroblasts
# In short: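 M-CSF levels, determined by ELISA, are taken at 24 h after dosing human skin fibroblasts. Responses in either direction are fitted with DMSO serving as the baseline.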
# [3] = read-out: Interferon-gamma inducible Protein 10 (IP10), CXCL10 (gene 3627); assay: BSK_KF3CT_IP10: BioMAP Diversity Plus: KF3CT Assay for Interferon-gamma inducible Protein 10 (IP10) Biomarker Activity (AID 2283068); conditions: actives raise or lower the signal; primary human keratinocytes with fibroblasts
# In short: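 ELISA read-out of IP-10 after 24 h chemical dosing of human skin primary co-culture (keratinocytes, foreskin fibroblasts). Gain or loss of signal relative to DMSO, bidirectional curve fit.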
# [4] = read-out: MicroRNA 122 (MIR122), gene 406906; assay: LTEA_HepaRG_MIR122: Life Technologies and Expression Analysis (LTEA) Assay for MicroRNA 122 (MIR122) using HepaRG (AID 2283516); conditions: actives raise or lower the signal; mRNA level, 48 h; note: the transcript read is the microRNA miR-122
# In short: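 Differentiated human HepaRG cells were exposed 48 h in serum-free induction medium to eight half-log concentrations (top 100 uM, 0.5% DMSO). Transcript level was measured by TaqMan qRT-PCR, normalized to ACTB, GAPDH and POLR2A, and fitted bidirectionally versus DMSO.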
# [5] = test system: zebrafish Estrogen Receptor (ESR2A), gene 317734; assay: ATG_zfER2a_XSP1: Attagene TRANS-FACTORIAL Multi-Species (XSP1) HepG2 Assay for zebrafish Estrogen Receptor (ESR2A) (AID 2283778; active = hit-call score of the fitted dose curve at least 0.9, where 1 is the maximum)
# In short: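 HepG2 cells transiently transfected with GAL4-UAS reporter units driven by a zebrafish ESR2A–Gal4 chimera; 24 h compound exposure with 3 nM 6-alpha-fluorotestosterone present. Reporter mRNA measured by RT-PCR with fluorescent capillary electrophoresis, fitted positive versus DMSO.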
# [6] = target: chicken Estrogen Receptor (ERa), ESR1 (gene 396099) (UniProt P06212); assay: ATG_chERa_XSP2: Attagene TRANS-FACTORIAL Multi-Species (XSP2) HepG2 Assay for chicken Estrogen Receptor (ERa) (AID 2283817; active = hit-call score of the fitted dose curve at least 0.9, where 1 is the maximum;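 note: actives raise reporter signal above DMSO so AC50 reflects ER activation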)
# UniProt P06212, sequence (P06212 whole entry, looked up, the tested form may be a part): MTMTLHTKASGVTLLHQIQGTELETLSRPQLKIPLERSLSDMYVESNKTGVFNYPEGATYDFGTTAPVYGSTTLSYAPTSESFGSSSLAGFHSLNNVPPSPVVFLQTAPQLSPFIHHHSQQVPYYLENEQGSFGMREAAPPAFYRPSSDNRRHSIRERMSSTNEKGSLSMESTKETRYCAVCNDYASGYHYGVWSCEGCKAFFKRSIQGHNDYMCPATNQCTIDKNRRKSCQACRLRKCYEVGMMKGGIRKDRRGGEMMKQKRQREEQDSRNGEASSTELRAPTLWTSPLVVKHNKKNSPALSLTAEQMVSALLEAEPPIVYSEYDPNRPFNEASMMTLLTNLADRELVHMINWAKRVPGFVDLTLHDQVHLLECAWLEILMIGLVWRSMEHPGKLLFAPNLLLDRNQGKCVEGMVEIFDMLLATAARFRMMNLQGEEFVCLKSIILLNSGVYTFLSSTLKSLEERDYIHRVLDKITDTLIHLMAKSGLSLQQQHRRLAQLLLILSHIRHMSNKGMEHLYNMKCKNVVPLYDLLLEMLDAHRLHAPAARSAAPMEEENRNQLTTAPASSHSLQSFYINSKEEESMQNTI
# In short: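 Transiently transfected HepG2 cells expressing chimeric chicken ERa-GAL4 reporter units, dosed 24 h with 3 nM 6-alpha-fluorotestosterone and 1.5 nM norgestrel present. Reporter mRNA measured by RT-PCR and capillary electrophoresis; gain-of-signal fitted relative to DMSO.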
# [7] = read-out: Matrix Metallopeptidase 1 (MMP1), MMP1 (gene 4312); assay: BSK_hDFCGF_MMP1: BioMAP Diversity Plus: hDFCGF Assay for Matrix Metallopeptidase 1 (MMP1) Biomarker Activity (AID 2283064); conditions: actives raise or lower the signal; primary human foreskin fibroblasts
# In short: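 Primary human foreskin fibroblasts exposed to chemicals for 24 h; MMP1 measured by ELISA. Cytotoxicity tracked by SRB staining in parallel cultures; bidirectional fit relative to DMSO.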
# [8] = read-out: Paternally Expressed 10 (PEG10), PEG10 (gene 23089); assay: LTEA_HepaRG_PEG10: Life Technologies and Expression Analysis (LTEA) Assay for Paternally Expressed 10 (PEG10) using HepaRG (AID 2283520); conditions: actives raise or lower the signal; mRNA level, 48 h
# In short: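 Differentiated HepaRG cells, plated 48 h then switched to serum-free induction medium, were exposed in duplicate for 48 h to eight half-log concentrations topping at 100 uM in 0.5% DMSO. PEG10 mRNA was quantified by TaqMan qRT-PCR, normalised to ACTB, GAPDH and POLR2A.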
# [9] = ACEA_AR_antagonist_AUC_viability: ACEA Biosciences xCELLigence Real-Time Cell Analysis on Androgen Receptor Antagonism for Viability (AID 2283776; active = hit-call score of the fitted dose curve at least 0.9, where 1 is the maximum;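 note: 22Rv1 human prostate cancer cells growing on impedance electrode plates; area under impedance growth curve at 80 h after dosing as viability; hits lower the growth signal relative to DMSO meaning cytotoxicity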)
# In short: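 Real-time electrical impedance tracks 22Rv1 proliferation after continuous compound exposure (top 100 uM final, 1:4 steps, 8 concentrations). The 80 h area-under-curve serves as the cytotoxicity readout relative to DMSO.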
# [10] = CCTE_Deisenroth_DEVTOX-GLR_legacy_CellCount: (Legacy) Viability Assessment in CCTE's DevTox GLR-Endo Assay, Deisenroth Lab (AID 2284331); conditions: actives raise or lower the signal
# In short: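 Nuclei count by fluorescence high-content imaging (5 fields/well) after 48 h differentiation of RUES2-GLR cells. Two exposures, 24 h apart; 1 nM - 200 uM series; n=4. Bidirectional fit vs DMSO.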
# [11] = read-out: Vascular cell adhesion molecule 1 (VCAM1), VCAM1 (gene 7412); assay: BSK_CASM3C_VCAM1: BioMAP Diversity Plus: CASM3C Assay for Vascular cell adhesion molecule 1 (VCAM1) Biomarker Activity (AID 2283055); conditions: actives raise or lower the signal; primary human coronary artery smooth muscle cells;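 note: VCAM-1 protein level quantified by ELISA on the cells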
# [12] = CEETOX_H295R_11DCORT: CeeTox H295R High-throughput Steroidogenesis Assay for 11-Deoxycortisol (11DCORT) (AID 2283432); conditions: actives raise or lower the signal
# In short: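 H295R cells; 10 uM forskolin prestim 48 h; compound in 0.1% DMSO 48 h; media extracted with MTBE; 11-deoxycortisol by LC-MS/MS, 7-point standard curve; gain/loss vs DMSO baseline; viability by MTT in same wells.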
# [13] = CEETOX_H295R_OHPROG: CeeTox H295R High-throughput Steroidogenesis Assay for OH-Progesterone (OHPROG) (AID 2283435); conditions: actives raise or lower the signal
# [14] = read-out: urokinase plasminogen activator (uPA), PLAU (gene 5328); assay: BSK_KF3CT_uPA: BioMAP Diversity Plus: KF3CT Assay for urokinase plasminogen activator (uPA) Biomarker Activity (AID 2283075); conditions: actives raise or lower the signal; primary human keratinocytes with fibroblasts
# In short: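 Primary human keratinocyte/foreskin fibroblast co-culture exposed to chemical; uPA measured by ELISA at 24 h. Bidirectional fit versus DMSO, with parallel SRB total-protein staining for cytotoxicity.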
# [15] = read-out: TIMP metallopeptidase inhibitor 2 (TIMP2), TIMP2 (gene 7077); assay: BSK_KF3CT_TIMP2: BioMAP Diversity Plus: KF3CT Assay for TIMP metallopeptidase inhibitor 2 (TIMP2) Biomarker Activity (AID 2283071); conditions: actives raise or lower the signal; primary human keratinocytes with fibroblasts
# In short: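 Human primary keratinocyte/foreskin fibroblast co-culture dosed with chemical and sampled at 24 h. TIMP-2 levels quantified by ELISA; bidirectional fitting against DMSO negative control as baseline.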
# [16] = CEETOX_H295R_OHPREG: CeeTox H295R High-throughput Steroidogenesis Assay for OH-Pregnenolone (OHPREG) (AID 2283434); conditions: actives raise or lower the signal
# [17] = BSK_CASM3C_SRB: Viability Assessment in the BioMAP Diversity Plus: CASM3C Assay (AID 2283050); conditions: primary human coronary artery smooth muscle cells
# [18] = CEETOX_H295R_PROG: CeeTox H295R High-throughput Steroidogenesis Assay for Progesterone (PROG) (AID 2283442); conditions: actives raise or lower the signal
# In short: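 Adrenal H295R line, forskolin-stimulated (10 uM, 48 h) before dosing. 48 h exposure, 0.1% DMSO vehicle. Secreted progesterone by reverse-phase HPLC with ESI+ MS/MS quantification; DMSO-normalised bidirectional curve fit.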
# [19] = read-out: Cyclin Dependent Kinase Inhibitor 1A (CDKN1A), CDKN1A (gene 1026); assay: LTEA_HepaRG_CDKN1A: Life Technologies and Expression Analysis (LTEA) Assay for Cyclin Dependent Kinase Inhibitor 1A (CDKN1A) using HepaRG (AID 2283450); conditions: actives raise or lower the signal; mRNA level, 48 h
# In short: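 Cryopreserved HepaRG cells were plated and cultured 48 h, then switched to serum-free induction medium. Chemicals (eight half-log concentrations, top 100 uM, 0.5% DMSO) were applied for 48 h. Lysates underwent qRT-PCR for CDKN1A with housekeeping normalization.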
# [20] = read-out: growth arrest and DNA damage 45 (GADD45G), GADD45G (gene 10912); assay: LTEA_HepaRG_GADD45G: Life Technologies and Expression Analysis (LTEA) Assay for growth arrest and DNA damage 45 (GADD45G) using HepaRG (AID 2283499); conditions: actives raise or lower the signal; mRNA level, 48 h
# In short: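 Human hepatic HepaRG line treated 48 h with chemicals (eight concentrations, half-log steps from 100 uM); transcript induction or repression of GADD45G scored by qRT-PCR versus DMSO vehicle.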
# [21] = read-out: JUN Transcription Factor, JUN (gene 3725); assay: LTEA_HepaRG_JUN: Life Technologies and Expression Analysis (LTEA) Assay for JUN Transcription Factor using HepaRG (AID 2283513); conditions: actives raise or lower the signal; mRNA level, 48 h
# In short: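 Differentiated HepaRG cells were exposed to chemicals for 48 h in serum-free induction medium, 8 concentrations from 100 uM in half-log steps, 0.5% DMSO vehicle, in duplicate. JUN mRNA was quantified by TaqMan qRT-PCR, normalized to ACTB, GAPDH, POLR2A.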
# MYC, MYC (gene 4609) = assay: LTEA_HepaRG_MYC: Life Technologies and Expression Analysis (LTEA) Assay for MYC using HepaRG (AID 2283518); conditions: actives raise or lower the signal; mRNA level, 48 h
# In short: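 Cells are thawed, plated and cultured 48 h, then treated for 48 h with test chemicals (eight half-log concentrations from 100 uM, 0.5% DMSO vehicle). RNA is isolated and MYC expression quantified by qRT-PCR against three housekeeping genes.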
# [22] = read-out: Interferon-inducible T-cell alpha chemoattractant (ITAC), CXCL11 (gene 6373); assay: BSK_hDFCGF_ITAC: BioMAP Diversity Plus: hDFCGF Assay for Interferon-inducible T-cell alpha chemoattractant (ITAC) Biomarker Activity (AID 2284251); conditions: primary human foreskin fibroblasts
# In short: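 Primary human foreskin fibroblasts (hDFCGF system) treated for 24 h; I-TAC quantified by ELISA. Gain-direction fitting versus DMSO; parallel SRB staining of total protein flagged overt cytotoxicity.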
# [23] = CCTE_Mundy_HCI_iCellGluta_NOG_NeuronCount: CCTE's Neurite Outgrowth Assay in iCellGluta cells for Neuron Count, Mundy Lab (AID 2284340; active = hit-call score of the fitted dose curve at least 0.9, where 1 is the maximum;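 note: cells fixed about 48 h after compound addition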)
# In short: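 Neuron count read by automated high-content imaging of Hoechst 33342 and betaIII-tubulin/Alexa Fluor-488 labelling in human iPSC glutamatergic neurons. Activity fitted relative to DMSO.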
compound,measurement,setting,value
CC(=O)O[C@]1(C(C)=O)CC[C@H]2[C@@H]3C=C(Cl)C4=CC(=O)[C@@H]5C[C@@H]5[C@]4(C)[C@H]3CC[C@@]21C,outcome,[1],inactive
same,outcome,[2],inactive
same,outcome,[3],inactive
same,AC50,[4],active: 50 µM
same,AC50,[5],active: 26.4 µM
same,outcome,[6],inactive
CO[C@H]1/C=C/O[C@@]2(C)Oc3c(C)c(O)c4c(O)c(c(/C=N/N5CCN(C)CC5)c(O)c4c3C2=O)NC(=O)/C(C)=C\C=C\[C@H](C)[C@H](O)[C@@H](C)[C@@H](O)[C@@H](C)[C@H](OC(C)=O)[C@@H]1C,outcome,[7],inactive
same,AC50,[8],active: 14.4 µM
same,outcome,[9],inactive
same,AC50,[10],active: 38.8 µM
CCCCCCC(C=O)=Cc1ccccc1,outcome,[7],inactive
CCCCCCCC[Si](OCC)(OCC)OCC,outcome,[11],inactive
same,outcome,[12],inactive
same,outcome,[13],inactive
NC(N)=O,outcome,[14],inactive
C[C@](N)(Cc1ccc(O)c(O)c1)C(=O)O,outcome,[15],inactive
same,outcome,[16],inactive
same,outcome,[13],inactive
C[C@]12C=CC(=O)C=C1CC[C@@H]1[C@@H]2C(=O)C[C@@]2(C)[C@H]1CC[C@]2(O)C(=O)CO,outcome,[17],inactive
same,outcome,[16],inactive
same,outcome,[18],inactive
same,outcome,[19],inactive
same,outcome,[20],inactive
same,outcome,[21],inactive
same,outcome,"MYC, MYC (gene 4609)",inactive
OCCC(F)(F)C(F)(F)C(F)(F)C(F)(F)C(F)(F)C(F)(F)C(F)(F)C(F)(F)F,AC50,[3],active: 14 µM
same,AC50,[22],active: 14.2 µM
same,outcome,[23],inactive
